Measured values reported in publication PMC10516938, “Conformational dynamics of cohesin/Scc2 loading complex are regulated by Smc3 acetylation and ATP binding” (Nature Communications, 2023).
Changes are numbered by the printed parent chain. In names and notes the source's numbering stands. Results are given in words; binding and its absence hold for the method and conditions named. Binding seen in cells or lysates may run through a third protein. Some binding calls cover weakened binding; strength is not graded here.

T1: Smc3^QQ W483R R1008I S72C (S. cerevisiae) (UniProt P47037)
T1 sequence: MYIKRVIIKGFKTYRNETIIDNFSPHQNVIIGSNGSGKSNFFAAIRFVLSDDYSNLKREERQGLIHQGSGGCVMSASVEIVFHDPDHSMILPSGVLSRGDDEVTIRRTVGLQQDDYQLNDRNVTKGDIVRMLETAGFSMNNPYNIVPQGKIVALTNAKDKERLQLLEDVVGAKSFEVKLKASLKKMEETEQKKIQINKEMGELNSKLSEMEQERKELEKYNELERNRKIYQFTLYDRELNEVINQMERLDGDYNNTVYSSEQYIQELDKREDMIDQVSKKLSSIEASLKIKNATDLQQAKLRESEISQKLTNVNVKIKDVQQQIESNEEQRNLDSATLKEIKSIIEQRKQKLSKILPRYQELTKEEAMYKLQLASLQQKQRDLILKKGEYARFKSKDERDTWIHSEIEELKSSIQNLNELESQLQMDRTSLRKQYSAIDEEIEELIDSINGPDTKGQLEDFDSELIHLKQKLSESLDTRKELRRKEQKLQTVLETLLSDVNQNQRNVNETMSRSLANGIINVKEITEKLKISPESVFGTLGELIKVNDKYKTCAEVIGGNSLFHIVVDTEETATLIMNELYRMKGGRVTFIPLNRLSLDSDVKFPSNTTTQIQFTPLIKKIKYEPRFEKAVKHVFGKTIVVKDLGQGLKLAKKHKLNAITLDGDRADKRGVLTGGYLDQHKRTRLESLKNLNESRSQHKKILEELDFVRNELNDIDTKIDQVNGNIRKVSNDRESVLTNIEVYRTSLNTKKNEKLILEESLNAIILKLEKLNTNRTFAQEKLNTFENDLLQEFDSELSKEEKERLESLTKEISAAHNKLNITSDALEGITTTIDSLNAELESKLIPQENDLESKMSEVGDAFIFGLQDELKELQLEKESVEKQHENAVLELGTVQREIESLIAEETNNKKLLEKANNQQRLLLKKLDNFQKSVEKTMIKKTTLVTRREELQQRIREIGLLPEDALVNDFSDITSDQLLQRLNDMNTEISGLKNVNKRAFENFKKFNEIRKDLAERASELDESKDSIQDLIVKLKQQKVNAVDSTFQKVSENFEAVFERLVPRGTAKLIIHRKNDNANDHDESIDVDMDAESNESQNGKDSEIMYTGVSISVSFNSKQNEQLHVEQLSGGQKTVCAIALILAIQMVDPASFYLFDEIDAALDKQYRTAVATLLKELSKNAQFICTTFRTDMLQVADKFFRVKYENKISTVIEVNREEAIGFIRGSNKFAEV

T2: Smc3^QQ-PK (S. cerevisiae) (UniProt P47037)
T2 sequence: T1 sequence with C72S, R483W, I1008R

B1: Scc2 E819C (natural protein, S. cerevisiae, UniProt Q04002 1-1493, looked up)
chain: MSYPGKDKNIPGRIIEALEDLPLSYLVPKDGLAALVNAPMRVSLPFDKTIFTSADDGRDVNINVLGTANSTTSSIKNEAEKERLVFKRPSNFTSSANSVDYVPTNFLEGLSPLAQSVLSTHKGLNDSINIEKKSEIVSRPEAKHKLESVTSNAGNLSFNDNSSNKKTKTSTGVTMTQANLAEQYLNDLKNILDIVGFDQNSAEIGNIEYWLQLPNKKFVLTTNCLTKLQMTIKNITDNPQLSNSIEITWLLRLLDVMVCNIKFSKSSLKMGLDDSMLRYIALLSTIVLFNIFLLGKNDSNLHRESYIMEPVNFLSDLIESLKILTIEYGSLKIEFDTFQEALELLPKYIRNGPFLDDNVTAKLVYIFSDLLMNNDIEATTNIQFQSFWDNVKRISSDILVSLFGSFDQQRGFIIEELLSHIEKLPTKRIQKKLRKVGNQNIYITDFTFTLMSMLENINCYSFCNQMKDIAPENIDLLKNEYKKQEEFLFNIVEHINDTILERFFKNPSALRYVIDNFVQDLLLLISSPQWPVTEKILSSLLKRLLSVYSPSMQVSANIETICLQLIGNIGSTIFDIKCSTRDHEDNNLIKMINYPETLPHFFKSFEECIAYNETIKCRRSATRFLWNLRLGTILILEEYTKDAKEQIITVDNELKKILEQIKDGGLGPELENREADFSTIKLDYFSILHAFELLNLYDPYLKLILSLLAKDKIKLRSTAIKCLSMLASKDKVILSNPMVKETIHRRLNDSSASVKDAILDLVSINSSYFEFYQQINNNYNDDSIMVRKHVLRINEKMYDETNDIVTKVYVIARILMKICDEEDNIIDMARLILLNRWILKVHEVLDQPEKLKEISSSVLLVMSRVAIMNEKCSQLFDLFLNFYLLNKEAHSKEAYDKITHVLTILTDFLVQKIVELNSDDTNEKNSIVDKQNFLNLLAKFADSTVSFLTKDHITALYPYMVSDEKSDFHYYILQVFRCTFEKLANFKQKFLYDLETTLLSRLPKMNVREIDEAMPLIWSVATHRHDTARVAKACSSCLSHLHPYINKANNEEAAIVVDGKLQRLIYLSTGFARFCFPKPSNDKIAFLQEGETLYEHITKCLLVLSKDKITHVIRRVAVKNLTKLCGNHPKLFNSRHVLHLLDKEFQSDQLDIKLVILESLYDLFLLEERKSVRNTGVNSTLSSNSILKKKLLKTNRVEFANDGVCSALATRFLDNILQLCLLRDLKNSLVAIRLLKLILKFGYTNPSHSIPTVIALFASTSQYIRHVAYELLEDLFEKYETLVFSSLSRGVTKAIHYSIHTDEKYYYKHDHFLSLLEKLCGTGKKNGPKFFKVLKRIMQSYLDDITDLTSTNSSVQKSIFVLCTNISNITFVSQYDLVSLLKTIDLTTDRLKEVIMDEIGDNVSSLSVSEEKLSGIILIQLSLQDLGTYLLHLYGLRDDVLLLDIVEESELKNKQLPAKKPDISKFSAQLENIEQYSSNGKLLTYFRKHVKDT
notes: Scc2, S. cerevisiae; source: S. cerevisiae W303, in vivo, whole-cell extract
B2: Scc2 T1281C (protein, UniProt Q04002 1-1493)
chain: B1 chain with C819E, T1281C

How the values were obtained:
[1] = biological target: T1, Smc3^QQ W483R R1008I S72C (S. cerevisiae); experiment: cross-linking; in vivo BMOE cross-link of cysteine pairs in yeast cells arrested in late G1 by non-degradable Sic1(9m); Scc1-PK immunoprecipitated, western blot, band intensities quantified
[2] = biological target: T2, Smc3^QQ-PK (S. cerevisiae); experiment: co-IP; Smc3-PK or Smc3^QQ-PK immunoprecipitated with anti-PK from whole-cell extracts of BMOE-treated late G1 arrested cells; Smc1 (anti-MYC) and Scc2 (anti-FLAG) detected

Binder | binding [1] | binding [2]
B1 | binds | 
B2 |  | binds
